Measured values from the supplement of paper PMC4967469.
A lower IC50 marks a more sensitive line; fits outside the tested doses are given as limits. AUC is the area under the same curve over the 256-fold range up to the top dose, as a fraction; values near 1 show little effect. For part of these data: The top dose, if marked as inferred, is not printed in the source and was worked back from the curve model. For part of these data: Where an entry number is given, a second screen of the drug exists; the two often differ.

Legend:
Assay in all cases: Viability of human cancer cell lines after 72 h of drug (GDSC screen)
PI-103 = compound: Oc1cccc(-c2nc(N3CCOCC3)c3oc4ncccc4c3n2)c1 [PI-103]; conditions: top dose 10.24 µM
Description: (§1)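 Human cancer cell lines in 384-well plates, medium with 10% serum, drug for 72 h over a 256-fold dose range (nine 2-fold or five 4-fold steps up to the top dose). Adherent lines were fixed and stained with the nucleic acid dye Syto60, suspension lines read with resazurin; signal relative to control wells, capped at 0 and 100%. One two-parameter sigmoid per drug and line, fitted in a mixed model over all curves with the slope shared within a line.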

Tretinoin = compound: CC1=C(/C=C/C(C)=C/C=C/C(C)=C/C(=O)O)C(C)(C)CCC1 [Tretinoin]; conditions: top dose 10 µM; top dose inferred
Description: as §1

UNC0638 = compound: COc1cc2c(NC3CCN(C(C)C)CC3)nc(C3CCCCC3)nc2cc1OCCCN1CCCC1 [UNC0638]
Description: as §1

SB-505124 = compound: Cc1cccc(-c2[nH]c(C(C)(C)C)nc2-c2ccc3c(c2)OCO3)n1 [SB-505124]; conditions: top dose 10 µM; top dose inferred
Description: as §1

GSK690693 = compound: CCn1c(-c2nonc2N)nc2c(C#CC(C)(C)O)ncc(OC[C@H]3CCCNC3)c21 [GSK690693]; conditions: top dose 10.24 µM; top dose inferred
Description: as §1

[1] = top dose 20 µM, screen: GDSC drug entry 1236, top dose inferred
[2] = top dose 40 µM, screen: GDSC drug entry 245

| Cell Line | AUC (PI-103) | IC50 (PI-103) [µM] | AUC (Tretinoin) | IC50 (Tretinoin) [µM] | AUC (UNC0638; [1]) | IC50 (UNC0638; [1]) [µM] | AUC (UNC0638; [2]) | IC50 (UNC0638; [2]) [µM] | AUC (SB-505124) | IC50 (SB-505124) [µM] | AUC (GSK690693) | IC50 (GSK690693) [µM] |
| --- | --- | --- | --- | --- | --- | --- | --- | --- | --- | --- | --- | --- |
| H2722 (mesothelioma, adherent) | 0.957 | > 10.2 | 0.984 | > 10 | 0.79 | 10.9 | 0.822 | 29.4 | 0.939 | > 10 | 0.984 | > 10.2 |
| HCC70 (breast, adherent) | 0.714 | 2.54 | 0.98 | > 10 | 0.833 | 12.6 | 0.661 | 6.94 | 0.965 | > 10 | 0.87 | 9.28 |
| HCC2998 (large intestine, adherent) | 0.98 | > 10.2 | 0.985 | > 10 | 0.791 | 8.73 | 0.754 | 13.1 | 0.985 | > 10 | 0.953 | > 10.2 |
| HMV-II (melanoma, adherent) | 0.739 | 3.66 | 0.933 | > 10 | 0.806 | 13 | 0.66 | 7.73 | 0.98 | > 10 | 0.935 | > 10.2 |
| HOP-92 (large cell lung carcinoma, adherent) | 0.984 | > 10.2 | 0.945 | > 10 | 0.832 | 15.6 | 0.893 | > 40 | 0.966 | > 10 | 0.984 | > 10.2 |
| HSC-4 (head and neck, adherent) | 0.843 | > 10.2 | 0.868 | > 10 | 0.851 | > 20 | 0.965 | > 40 | 0.833 | 9.65 | 0.911 | > 10.2 |
| JHH-6 (liver, adherent) | 0.93 | > 10.2 | 0.942 | > 10 | 0.81 | 10.7 | 0.98 | > 40 | 0.926 | > 10 | 0.987 | > 10.2 |
| KYSE-70 (oesophagus, adherent) | 0.704 | 2.55 | 0.984 | > 10 | 0.929 | > 20 | 0.841 | 31.5 | 0.958 | > 10 | 0.968 | > 10.2 |
| M14 (melanoma, adherent) | 0.987 | > 10.2 | 0.981 | > 10 | 0.818 | 12.1 | 0.59 | 4.47 | 0.985 | > 10 | 0.987 | > 10.2 |
| MDA-MB-175-VII (breast, adherent) | 0.396 | 0.322 | 0.978 | > 10 | 0.986 | > 20 | 0.967 | > 40 | 0.986 | > 10 | 0.841 | 8.23 |
| MKN45 (stomach, adherent) | 0.696 | 2.65 | 0.937 | > 10 | 0.853 | > 20 | 0.866 | > 40 | 0.941 | > 10 | 0.958 | > 10.2 |
